Reference: the supplement of paper PMC7826260
The other results are listed elsewhere or left out. One pool of 16,384 single-stranded DNAs met each Rep nickase domain in vitro for 1 h at 37 °C with 3 µM enzyme; only the middle of the 90-letter strands is printed. The score is log2 (uncut reads / reads without enzyme); uncut sequences lie near 0, cut ones below; no hit call is given. Shares of all reads are compared; values above 0 arise when much of the pool is cut.

Experiments:
Assay in all cases: uncleaved DNA left, log2 of reads against the no-enzyme library (log2 ratio); higher = less cleavage (more negative = more Rep cleavage of the k-mer); sequences stand for … in CTCGTCCG…ACCGGAGA
[1] = tested on: T1, Rep nickase domain of Muscovy duck circovirus
T1 sequence (residues 1-111 of Rep, tag left off): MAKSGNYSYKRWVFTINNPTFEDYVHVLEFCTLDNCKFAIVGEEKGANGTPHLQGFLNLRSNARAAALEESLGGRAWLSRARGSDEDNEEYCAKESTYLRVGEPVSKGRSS
Method: (§1)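 A pool of 90-nt single-stranded DNAs with seven random bases just before the constant AC of the nick site (name = the seven bases) was cut by 3 µM recombinant His6-SUMO-tagged Rep nickase domain (300 nM DNA, 50 mM HEPES pH 8.0, 50 mM NaCl, 1 mM MnCl2, 1 h, 37 °C, three replicates). Uncut DNA was amplified and sequenced.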

[2] = tested on: T2, Rep nickase domain of banana bunchy top virus
T2 sequence (residues 1-94 of Rep, tag left off): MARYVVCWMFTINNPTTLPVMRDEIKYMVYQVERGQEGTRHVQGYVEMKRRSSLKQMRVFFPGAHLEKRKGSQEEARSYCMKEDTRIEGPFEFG
Method: as §1

[3] = tested on: T3, Rep nickase domain of cabbage leaf curl virus
T3 sequence (residues 1-116 of Rep, tag left off): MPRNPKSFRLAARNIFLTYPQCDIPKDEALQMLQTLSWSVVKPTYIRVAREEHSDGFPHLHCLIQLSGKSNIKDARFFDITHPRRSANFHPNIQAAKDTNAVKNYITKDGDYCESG
Method: as §1

[4] = tested on: T4, Rep nickase domain of chickpea chlorotic dwarf virus
T4 sequence (residues 1-124 of Rep, tag left off): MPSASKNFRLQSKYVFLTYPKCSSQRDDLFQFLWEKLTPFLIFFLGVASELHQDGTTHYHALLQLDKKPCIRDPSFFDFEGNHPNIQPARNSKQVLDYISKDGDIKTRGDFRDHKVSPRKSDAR
Method: as §1

[5] = tested on: T5, Rep nickase domain of faba bean necrotic yellows virus
T5 sequence (residues 1-98 of Rep, tag left off): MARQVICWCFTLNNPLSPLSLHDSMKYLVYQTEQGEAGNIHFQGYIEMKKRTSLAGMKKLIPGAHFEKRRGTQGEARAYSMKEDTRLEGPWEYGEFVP
Method: as §1

[6] = tested on: T6, Rep nickase domain of maize striate mosaic virus
T6 sequence (residues 1-117 of Rep, tag left off): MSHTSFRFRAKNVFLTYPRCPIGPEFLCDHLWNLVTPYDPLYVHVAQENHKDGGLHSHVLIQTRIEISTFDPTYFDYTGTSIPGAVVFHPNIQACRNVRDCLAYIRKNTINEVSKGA
Method: as §1

[7] = tested on: T7, Rep nickase domain of porcine circovirus 2
T7 sequence (residues 2-116 of Rep, tag left off): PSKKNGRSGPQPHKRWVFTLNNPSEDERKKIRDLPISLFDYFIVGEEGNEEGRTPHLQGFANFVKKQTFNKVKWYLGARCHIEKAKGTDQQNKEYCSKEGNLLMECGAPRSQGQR
Method: as §1

[8] = tested on: T8, Rep nickase domain of tomato golden mosaic virus
T8 sequence (residues 1-124 of Rep, tag left off): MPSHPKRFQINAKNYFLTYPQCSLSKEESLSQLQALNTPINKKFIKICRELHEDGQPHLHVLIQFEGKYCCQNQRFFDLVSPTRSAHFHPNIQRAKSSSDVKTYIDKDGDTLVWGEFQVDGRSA
Method: as §1

[9] = tested on: T9, Rep nickase domain of tomato yellow leaf curl virus
T9 sequence (residues 1-136 of Rep, tag left off): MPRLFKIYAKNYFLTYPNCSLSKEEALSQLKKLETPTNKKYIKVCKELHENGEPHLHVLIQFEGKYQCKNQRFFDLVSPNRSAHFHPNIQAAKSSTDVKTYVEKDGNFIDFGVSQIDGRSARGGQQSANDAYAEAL
Method: as §1

[10] = tested on: T10, Rep nickase domain of wheat dwarf virus
T10 sequence (residues 1-137 of Rep, tag left off): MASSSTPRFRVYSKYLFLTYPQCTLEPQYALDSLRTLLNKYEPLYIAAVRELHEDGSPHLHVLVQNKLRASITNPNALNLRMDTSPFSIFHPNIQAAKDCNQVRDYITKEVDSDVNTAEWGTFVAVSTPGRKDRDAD
Method: as §1

Sequence	uncleaved DNA left (log2) [1]	uncleaved DNA left (log2) [2]	uncleaved DNA left (log2) [3]	uncleaved DNA left (log2) [4]	uncleaved DNA left (log2) [5]	uncleaved DNA left (log2) [6]	uncleaved DNA left (log2) [7]	uncleaved DNA left (log2) [8]	uncleaved DNA left (log2) [9]	uncleaved DNA left (log2) [10]
CGCTCTT	-1.66	-0.204	-0.163	-1.64	0.00719	-0.184	-2.45	-0.116	-0.00811	-0.142
TCGGTGA	0.104	-0.0599	0.0382	-0.162	0.00015	-0.642	0.18	0.00172	-0.163	-0.0917
CGCATGT	0.0781	0.0715	-0.108	-0.0133	0.107	-0.229	0.0382	-0.0486	0.043	0.0219
AGGAAGT	0.0799	0.0242	0.313	0.971	-0.0483	0.822	0.11	0.0826	0.0125	0.125
GGGACAG	0.0774	0.242	0.984	2.24	-0.0292	2.48	0.393	0.204	-0.369	0.269
TTAAGCG	0.0099	-0.0257	-0.83	0.528	-0.0444	-0.754	0.112	-0.0481	-0.00152	-0.0647
TCATGAG	0.0635	0.0873	-0.721	-0.0222	0.0567	-0.998	0.0868	-0.155	0.0674	-0.11
GCGCGCA	0.0605	0.03	-0.0996	0.289	-0.0592	0.418	-0.0579	-0.0384	0.0101	-0.0325
AGGTTTG	-0.111	-0.145	-0.208	-0.145	-0.0421	-0.408	-0.0554	-0.0679	-0.104	-0.105
GCGTGAA	0.19	0.142	0.205	0.527	0.173	0.417	0.0534	0.111	0.225	-0.0365
GGTTACG	0.147	0.0757	-0.435	-0.298	0.0705	-0.378	0.239	0.109	0.082	0.0216
CTCTTAC	-0.911	-0.136	-0.336	-2.02	-0.0221	-0.792	-1.58	-0.0885	-0.0778	-0.14
AGGGCGG	0.0756	0.071	0.0511	0.554	0.0644	0.856	0.203	0.243	0.00865	-0.0269
GGTGTCC	-0.0855	-0.0161	0.321	0.995	-0.111	1.7	0.0249	-0.21	-0.0325	0.0321
CGGGCCG	-0.0282	0.0387	-0.563	-0.163	0.036	-0.288	0.0955	0.0592	0.0223	-0.0519
TTAGGAT	-0.00779	-0.00212	0.219	1.6	-0.145	1.76	0.244	0.0826	-0.104	-0.056
GTAACAC	0.132	0.147	0.259	0.725	0.0746	1.52	0.141	0.0939	0.192	0.209
CGAATAT	-0.107	-0.0591	-0.0702	-0.361	-0.0457	-0.272	0.018	-0.139	0.0521	-0.0975
GGATGTA	0.0963	0.0638	0.62	1.27	0.0229	1.93	0.255	-0.0362	0.162	0.162
ATAGAAG	0.0372	0.053	-0.689	-0.331	0.106	-1.04	0.247	0.0506	0.156	0.0202
GATCGTT	0.0259	-0.0152	0.176	-0.243	-0.00395	0.769	-1.41	-0.0945	-0.00376	-0.0427

Sequence	uncleaved DNA left (log2) [1]	uncleaved DNA left (log2) [2]	uncleaved DNA left (log2) [3]	uncleaved DNA left (log2) [4]	uncleaved DNA left (log2) [5]	uncleaved DNA left (log2) [6]	uncleaved DNA left (log2) [7]	uncleaved DNA left (log2) [8]	uncleaved DNA left (log2) [9]	uncleaved DNA left (log2) [10]
CACATGC	-0.11	-0.0453	-0.788	-0.418	-0.124	-1.3	-0.0141	-0.166	-0.00434	-0.188
GCGTCGC	-0.209	-0.298	-0.463	-0.353	-0.17	-0.553	-0.138	-0.176	-0.144	-0.336
ATGCAGT	0.132	-0.12	-0.607	-0.678	0.0194	-1.08	-0.0167	0.0727	0.00334	-0.0378
ATTCCGG	-0.0627	0.111	0.485	1.39	0.0466	1.54	-0.00765	0.0633	-0.0254	0.105
TGACGAC	-0.153	-0.0466	0.118	0.394	-0.098	0.493	-0.083	-0.0638	-0.0304	-0.075
GGCTCCC	0.0167	0.0743	0.308	0.575	0.0607	0.958	-0.365	0.0403	0.167	0.174
CACGGAC	0.0881	0.0873	0.376	1.14	0.101	0.999	0.178	0.0869	0.141	0.156
ACTTGAC	-0.0882	-0.0644	-0.281	-0.0423	0.0478	-0.641	0.134	-0.0787	-0.0908	-0.027
TCTGTTT	0.0459	0.0255	-0.0355	-1.55	0.066	-0.00707	-0.15	-0.0202	-0.0354	-0.0699
TATGCTG	-0.0623	-0.0548	0.0463	0.929	-0.0461	1.07	0.0325	-0.0274	-0.0765	-0.0364
CCCTTGA	-0.118	-0.0379	-0.187	-0.541	-0.0573	-1.02	-0.117	-0.1	0.0563	-0.0299
CATCCTA	-0.228	-0.0504	-0.141	-2.15	-0.0678	-0.748	-0.233	-0.0741	-0.0043	0.0176
AGATGGA	0.149	0.0806	0.261	0.518	0.149	0.137	0.0807	0.125	0.0154	0.11
AACACTG	-0.0357	0.012	0.0326	0.642	0.017	1.11	0.0568	0.0633	-0.0541	0.0622
TCTTCCT	-0.574	-0.0941	-0.157	-2.42	-0.0559	-0.539	-1.69	-0.224	-0.0285	-0.0745
ACGGAAC	-0.0543	-0.135	-0.0674	0.149	-0.125	-0.126	0.13	0.0457	-0.182	-0.0223
CAGACCG	0.0381	0.101	-0.313	-0.315	-0.0432	-0.69	0.0811	0.0215	-0.0295	-0.0112
TAGACGA	0.0296	-0.0236	0.125	0.33	-0.119	0.0386	-0.0313	-0.0679	-0.0576	-0.0455
TCGTCCC	0.0539	-0.0525	0.223	0.00762	0.0637	0.0724	-0.162	-0.0684	0.0787	-0.00169
TGATGCG	-0.0224	-0.0739	-0.296	1	0.0311	0.552	0.106	-0.0909	-0.178	0.00993
GTGCGTG	0.0231	0.0238	-0.238	0.0282	0.0121	-0.349	-0.0338	0.0196	0.0807	-0.0718

Sequence	uncleaved DNA left (log2) [1]	uncleaved DNA left (log2) [2]	uncleaved DNA left (log2) [3]	uncleaved DNA left (log2) [4]	uncleaved DNA left (log2) [5]	uncleaved DNA left (log2) [6]	uncleaved DNA left (log2) [7]	uncleaved DNA left (log2) [8]	uncleaved DNA left (log2) [9]	uncleaved DNA left (log2) [10]
GCAAGGT	0.111	0.0491	0.319	0.835	0.0905	0.778	0.0617	-0.0064	-0.00645	0.0785
CCCACAC	0.0657	0.0715	0.0437	-0.466	0.000856	-0.665	0.0127	0.0577	-0.126	-0.0226
TATCCGG	0.0148	-0.00218	0.442	1.39	-0.074	1.79	0.01	-0.00146	-0.0909	-0.0224
GCGCTTA	-0.096	-0.0555	0.0191	-0.22	-0.0121	0.18	-0.0697	-0.128	-0.00954	-0.0817
CTCTCGG	0.199	0.131	0.599	1.49	0.0856	1.68	0.194	0.249	0.0361	0.0857
CGTTACT	-2.88	-0.63	-0.12	-2.35	0.0262	-0.125	-2.98	0.00308	0.0955	-0.128
TTAGGCT	-0.0356	-0.026	0.117	-0.21	0.00953	0.39	-0.0282	0.101	-0.0472	0.00742
ACGACGG	0.0427	0.00607	0.0127	0.457	-0.127	1.29	0.0654	0.0347	-0.0885	-0.054
ACTCCGC	-0.109	0.0255	-0.596	-0.594	-0.0452	-1.08	0.0934	-0.108	-0.123	-0.118
GGAGATT	0.00606	0.0872	0.465	1.33	0.0707	1.55	-0.0307	-0.0162	0.112	0.0905
TTGTGTG	0.0163	-0.0405	-0.742	-0.341	-0.00783	-1.19	0.118	-0.0118	-0.00806	-0.165
AGCTTAA	0.0724	0.0908	-0.0267	0.187	0.0648	0.119	-0.778	-0.0128	-0.0321	0.131
AGTAGTG	0.0381	0.0367	-0.261	-0.169	0.0251	-0.573	0.218	0.171	0.138	0.0233
TATTGCC	-0.152	-0.081	-0.774	-0.38	-0.0745	-1.07	-0.0365	-0.236	0.00168	-0.159
CGTCCAA	-0.0709	-0.0465	0.0268	-0.0604	-0.141	-0.384	-0.0496	-0.184	-0.07	0.0143
TCCCTTC	0.16	-0.195	0.16	-0.228	-0.131	-0.533	-0.0285	-0.185	-0.131	0.0177
CGTTATG	0.0547	0.0924	-0.0854	0.0845	0.0775	-0.352	0.243	-0.0376	0.076	0.0516
CCTCGTA	-0.114	0.0331	-0.188	-1.07	0.00946	-0.937	0.0297	-0.0298	-0.0786	-0.0968
TCCTGGC	-0.0627	-0.19	-0.23	-0.598	-0.0561	-1.15	-0.0726	-0.251	-0.14	-0.0917
AATTTCC	-3.01	-0.316	-0.402	-1.18	-0.594	-0.406	-3.34	-0.237	-0.0082	-0.13
